Assay results as given in patent publication US20260242472A1 (SANYOU BIOPHARMACEUTICALS, published 2026).

T1: huCD3E-AA1-27-huFc-Biotin (human, biotinylated (sites not given))
T1 construct: also called biotinylated huCD3E AA1-27-huFc
T1 chain: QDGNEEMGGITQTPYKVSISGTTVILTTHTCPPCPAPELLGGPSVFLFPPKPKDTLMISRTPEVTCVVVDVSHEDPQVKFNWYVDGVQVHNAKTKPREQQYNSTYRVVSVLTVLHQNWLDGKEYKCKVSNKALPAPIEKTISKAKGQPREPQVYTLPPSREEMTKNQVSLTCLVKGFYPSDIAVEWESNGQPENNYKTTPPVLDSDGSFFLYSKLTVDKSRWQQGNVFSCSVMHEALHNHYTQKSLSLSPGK

T2: huCD3E-AA1-27-huFc (human)
T2 construct: Made in HEK293 cells, purified on Protein A/G. No linker between the two parts is mentioned; also called antigen protein
T2 chain: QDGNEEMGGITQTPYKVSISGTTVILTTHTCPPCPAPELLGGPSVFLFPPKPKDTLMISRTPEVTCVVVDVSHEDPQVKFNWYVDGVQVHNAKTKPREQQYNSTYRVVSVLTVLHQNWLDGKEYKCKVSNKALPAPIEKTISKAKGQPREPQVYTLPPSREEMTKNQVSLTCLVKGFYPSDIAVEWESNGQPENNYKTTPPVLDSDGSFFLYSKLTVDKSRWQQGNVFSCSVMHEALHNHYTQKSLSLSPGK


Columns and labels:
[1] = target: T1, huCD3E-AA1-27-huFc-Biotin; assay: BLI (Gator), biotinylated antigen on SA probe, antibody 0.62-40 nM
Experimental: Protein biotinylation: The antigen protein huCD3E AA1-27-huFc was diluted to a final concentration of 1 mg/mL, premixed with biotin and reacted at 4° C. for 1 h, and then unreacted free biotin was removed by filtration with an ultrafiltration tube to obtain biotinylated huCD3E AA1-27-huFc (hereinafter referred to as huCD3E-AA1-27-huFc-Biotin).
In the dark, the sensor was pre-wetted with Q Buffer (SA Probes, ProbeLife). After 10 min, the sample plate (Greiner, 655209) was tested. After the test was correct, the preset procedure was followed. First, antigen binding was performed for 600 s. After the binding was completed and equilibration was continued in Q Buffer for 30 s, the sensor bound to the antigen huCD3E-AA1-27-huFc-Biotin was transferred to different concentrations of antibody dilutions for binding for 120 s, and then transferred to Q Buffer for dissociation for 180 s. Finally, KD, Ka and Kd were obtained by fitting the binding and dissociation data of different concentrations of antigens and antibodies.

[2] = target: T2, huCD3E-AA1-27-huFc; assay: SPR (Biacore T200), antigen amine-coupled to about 75 RU, antibody 4 and 20 nM, 1:1 Langmuir fit
Experimental: Protein coupling: The huCD3E-AA1-27-huFc protein produced in example 1.2 was diluted to 5.8 μg/mL with an NaAc buffer at pH 4.5. The flow rate was set to 10 μL/min. The chip was activated with a mixture of 1-ethyl-(3-dimethylaminopropyl)carbodiimide (EDC) and N-hydroxysuccinimide (NHS) for the default time of 420 s. The antigen protein huCD3E AA1-27-huFc was immobilized to a level of approximately 75 RU using a coupling mode with a preset coupling amount. The activated groups not bound to the test sample were blocked with ethanolamine.
Sample test condition: A PBS buffer (pH 7.4) containing 0.05% Tween-20 was used as a running buffer, and the running buffer was used as a control antibody test sample. A series of antibody concentrations (4 nM, 20 nM) were set. During sample analysis, the flow rate was set to 30 μL/min, the binding time was 180 s, and the dissociation time was 300 s. After dissociation was completed, regeneration was performed with 10 mM Gly-HCl (pH 2.0) for 20 s to completely remove antibody bound to the antigen.
Parameter fitting: The experiment was run in multiple cycles, with the response signal plotted against analysis time on the abscissa and response value on the ordinate. After dual-reference subtraction, the obtained data were fitted by BIAcore T200 analysis software. The fitting model used was a 1:1 Langmuir binding model, so as to determine affinity indicators such as the binding dissociation constant.

[3] = target: T3, CD3 on Jurkat cells (human, UniProt P07766); assay: flow cytometry on Jurkat cells, PE anti-human IgG Fc secondary; EC50 from the table drawn beside the curves, unit taken from the concentration axis
T3 construct: whole, on cells; only the CD3E chain is named here, the other chains of the complex are not described; also called Jurkat cells (human T lymphocytic leukemia cells); NF-κB-Jurkat cells

[4] = target: T4, human CD3D and CD3E on huCD3D-CD3E-CHO-K1 cells (human, UniProt P04234; P07766); assay: flow cytometry on huCD3D-CD3E-CHO-K1 cells, PE anti-human IgG Fc secondary; EC50 from the table drawn beside the curves, unit taken from the concentration axis
T4 construct: Whole entries as named, with their signal peptides; also called human CD3D&CD3E
T4 sequence (P04234 22-171 limits assumed): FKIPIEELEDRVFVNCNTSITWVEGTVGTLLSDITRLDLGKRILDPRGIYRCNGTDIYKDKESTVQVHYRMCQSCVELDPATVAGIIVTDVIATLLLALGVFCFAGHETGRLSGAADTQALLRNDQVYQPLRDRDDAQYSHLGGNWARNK

Kd [1] [pM] | koff [1] [s⁻¹] | kon [1] [M⁻¹ s⁻¹] | Kd [2] [pM] | koff [2] [s⁻¹] | kon [2] [M⁻¹ s⁻¹] | EC50 [3] [µg/mL] | EC50 [4] [µg/mL] | Binder
136 | 0.000226 | 1.66e+06 | 56.9 | 0.000138 | 2.43e+06 |  |  | 63-P3-1-scFv-LH (Fc fusion) scFv: QTVVTQEPSLTVSPGGTVTLTCGSSTGAVTSGYYPNWVQQKPGQAPRGLIGGTKFLAPGTPARFSGSLLGGKAALTLSGVQPEDEAEYYCALWVDNRWVFGGGTKLTVLGGGGSGGGGSGGGGSEVQLVESGGGLVQPGGSLKLSCAASGFTFSKYAMNWVRQASGKGLEWVGRIRSKYNNYATYYADSVKDRFTISRDDSKNTAYLQMNNLKTEDTAVYYCVRHGNFGNSYISYWAYWGQGTTVTVSS[letters of human IgG4 Fc with S228P (EU numbers) not shown]
33100 | 0.0143 | 431000 | 8710 | 0.0177 | 2.03e+06 |  |  | 78-P1-3-scFv-LH (Fc fusion) scFv: QTVVTQEPSLTVSPGGTVTLTCGSSTGAVTSGYYPNWVQQKPGQAPRALIYGTHFLAPGTPARFSGSLLGGKAALTLSGVQPEDEAEYYCALWYSNRWVFGGGTKLTVLGGGGSGGGGSGGGGSEVQLVESGGGLVQPGGSLKLSCAASGFTFPKYAMNWVRQAPGKGLEWVGRIRSKYNNYETYYADSVKDRFTISRDDSKNTAYLQMNNLKTEDTAVYYCVRHGNFGNSYISYWAYWGQGTTVTVSS[letters of human IgG4 Fc with S228P (EU numbers) not shown]
216 | 0.000434 | 2.01e+06 | 48.5 | 9.38e-05 | 1.93e+06 | 0.0241 |  | 78-P3-1-scFv-LH (Fc fusion) scFv: QTVVTQEPSLTVSPGGTVTLTCGSSTGAVTSGYYPNWVQQKPGQAPRGLIGGTHFLAPGTPARFSGSLLGGKAALTLSGVQPEDEAEYYCALWYSNRWVFGGGTKLTVLGGGGSGGGGSGGGGSEVQLVESGGGLVQPGGSLKLSCAASGFTFSKYAMNWVRQASGKGLEWVGRIRSKYNNYETYYADSVKDRFTISRDDSKNTAYLQMNNLKTEDTAVYYCVRHGNFGNSYISYWAYWGQGTTVTVSS[letters of human IgG4 Fc with S228P (EU numbers) not shown]
384 | 0.000471 | 1.23e+06 |  |  |  |  |  | 79-P3-1-scFv-LH (Fc fusion) scFv: QTVVTQEPSLTVSPGGTVTLTCGSSTGAVTSGYYPNWVQQKPGQAPRGLIGGTKFLAPGTPARFSGSLLGGKAALTLSGVQPEDEAEYYCALWQENRWVFGGGTKLTVLGGGGSGGGGSGGGGSEVQLVESGGGLVQPGGSLKLSCAASGFTFSKYAMNWVRQASGKGLEWVGRIRSKYNNYATYYADSVKDRFTISRDDSKNTAYLQMNNLKTEDTAVYYCVRHGNFGNSYISYWAYWGQGTTVTVSS[letters of human IgG4 Fc with S228P (EU numbers) not shown]
3940 | 0.00237 | 602000 |  |  |  |  |  | P1-3-3-scFv-LH (Fc fusion) scFv: QTVVTQEPSLTVSPGGTVTLTCGSSTGAVTSGYYPNWVQQKPGQAPRALIYGTKFLAPGTPARFSGSLLGGKAALTLSGVQPEDEAEYYCALWYSNRWVFGGGTKLTVLGGGGSGGGGSGGGGSEVQLVESGGGLVQPGGSLKLSCAASGFTFSKYAMNWVRQASGKGLEWVGRIRSKYNNYATYYADSVKDRFTISRDDSKNTAYLQMNNLKTEDTAVYYCVRHGNFGNSYISYWAYWGQGTTVTVSS[letters of human IgG4 Fc with S228P (EU numbers) not shown]
332 | 0.00041 | 1.23e+06 |  |  |  |  |  | P2-3-5-scFv-LH (Fc fusion) scFv: QTVVTQEPSLTVSPGGTVTLTCGSSTGAVTSGYYPNWVQQKPGQAPRALIGGTKFLAPGTPARFSGSLLGGKAALTLSGVQPEDEAEYYCALWYSNRWVFGGGTKLTVLGGGGSGGGGSGGGGSEVQLVESGGGLVQPGGSLKLSCAASGFTFSKYAMNWVRQASGKGLEWVGRIRSKYNNYATYYADSVKDRFTISRDDSKNTAYLQMNNLKTEDTAVYYCVRHGNFGNSYISYWAYWGQGTTVTVSS[letters of human IgG4 Fc with S228P (EU numbers) not shown]
499 | 0.000584 | 1.17e+06 |  |  |  |  | 0.096 | P3-1-scFv-LH (Fc fusion, scFv-Fc) scFv: [letters of about 120 residues not shown]GGGSGGGGSGGGGSEVQLVESGGGLVQPGGSLKLSCAASGFTFSKYAMNWVRQASGKGLEWVGRIRSKYNNYATYYADSVKDRFTISRDDSKNTAYLQMNNLKTEDTAVYYCVRHGNFGNSYISYWAYWGQGTTVTVSS[letters of human IgG4 Fc with S228P (EU numbers) not shown]
